From the supplement of paper PMC10126150
Values marked as one replicate rest on one cluster of the flow cell; about a third of the high ones do not repeat.

Test system: ATP
Assay: switch fluorescence ratio, 500 uM ATP over buffer (Cy3 cluster intensity, sum of 5 cycles each) (fold (ratio)); higher = stronger signal-on switching upon ATP binding; sequences stand for … in TCGTCGGCAGCGTCAGATGTGTATAAGAGACAGTTTTTTTTTTTTTTTTTTTTTTTTT…TC
Settings: aptamer strand: ATP DNA aptamer (quencher-CACCTGGGGGAGTATTGCGGAGGAAGG + anchor), 100 nM annealed; ATP concentration: 500 uM; one replicate
Method in brief: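 After annealing to 100 nM quencher-labelled ATP aptamer, Cy3-labelled switching-strand clusters on a modified Illumina MiSeq flow-cell were imaged in selection buffer. A second image followed after 15 min with 500 uM ATP at 22 °C, and five such buffer/ATP cycles were done, each separated by NaOH stripping and re-annealing. The fluorescence ratio, averaged per switch-domain sequence, is summed target-cycle over summed buffer-cycle Cy3 intensity per cluster, with clusters outside 100-1000 RFU excluded.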
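Also: ATP exposure 15 min at 22 °C before imaging.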

Sequence	switch fluorescence ratio
CAAGAGCCTG	0.961
GGTGCTGTAT	1.03
ATCGGGTGGA	0.965
GGACTTATGT	1.01
ACGTTTAGCG	1
GAGATAGGCG	1.12
TACGGTGCTG	0.834
AGCTCAGTAC	1.35
CATAAGTTG	1.02
ACGCGATGGT	1.08
GTCGAACATC	0.963
GTTCTAAGCC	0.984
ATTAGCCCTT	1.03
ATATTAAAGC	0.967
CAAACGAC	1.16
AGTACAGGA	1.03
TTGAAATGGC	0.982
ACTGGGTCGC	0.967
CGAAAGTGTA	1
AAGCGATCCT	1.04
AGAGTAGGAA	0.993
CTACAGTCTG	0.99
GGAAGCTACC	1.2

Sequence	switch fluorescence ratio
TAATAGACTT	1.03
AAATGGCCTG	1.05
AGCGTTGTGA	1.02
ACTCTCAGTA	0.948
GTCTAAAGCC	1.04
ATACACTAGT	1.06
CCGGTTTGCC	1.01
ATTTGTCAGC	1.02
GCATACGGCG	1.05
CGCTGTTGGG	0.997
CAAGGACGAC	1.1
GAACGGTTCT	0.956
ATCACACTCG	1.02
AAATTGGCTC	1.05
TGCCAACTCG	1.02
AGAGATCTAC	1.02
AGCAAGGTGT	1.4
AGCGTCTATC	1.03
TGTGATTAAT	1.02
TATTTCAGTG	1.02
TTTGTAAAAC	1.02
AGCCCCTCTG	1.06
AAAGTATGGG	1.02

Sequence	switch fluorescence ratio
GTGTGTGTAC	1.03
CAATGGATCA	1.26
AAGCCTCCCT	1.21
CAGTGACTGG	0.989
TTCGGAGAT	1.07
CGCGTAGTGC	1.17
CTCCCAGATT	1.43
AAATGTTAGT	1.03
GCTTTGGTAG	0.941
GGTAGTTTCC	1.08
ATCTAGTTGC	1.04
TATGGCGAGG	1.05
GTAAAATT	1.01
TTCATAGAGT	1
TTGCGAGTCG	1.01
AACCCATATT	0.977
AACCGCTATT	1.43
GCTGCGTTTG	1.01
CGGCCATGGA	0.962
AGTCGGCGTC	1.01
GGTGATGC	1.08
GAATTGCTTA	1.01
TAACATTTCC	1.6

Sequence	switch fluorescence ratio
TGGGCGAGGT	1.01
GGTACCATGT	1.02
GGATGTGTCA	1
GCTAGGGGCC	1.04
AATAGATTCA	0.992
GCTCCTGGAG	0.97
TCATCTCAAT	1.24
AGGTCAAAT	1.02
GCTGTGATGG	1.02
TGACCAGATG	1.01
GGGTCGC	0.975
TATAGGCTC	0.989
TACTAGCACT	1.15
TACCAAGTGA	1.03
TCAGCCATA	1.03
CGATGTTGGC	1.04
TTCTTATAGC	1.04
AGCGGGTGG	1.01
GCGCAGGGGC	1.23
AGGACGTTAT	1.07
CCTGAGTAA	1.7
TGTTTATGCC	1.03
ATTGCGTTCG	0.995

Sequence	switch fluorescence ratio
GTCCTACAAT	0.985
GCACATGGGA	0.998
AAATTGCGGA	0.981
CTGACCGGGG	1.08
AATTTTTACG	1.01
AACGGTGCTT	0.9
TCGTCCATTC	1.09
ACGATTGTGC	1.02
TCTTGAATAC	1.49
TAGTTAAATT	0.949
CGTTGGCTAC	1.54
AGGTGCAAAC	1.09
CTGCAGGGTC	1.21
ACTACAAAAA	1.07
TAGATGTTGC	1
ATGGTCCGTA	1.05
ATTTTTACGA	1.01
AAGCTATGTT	1
ACCCCCATGT	1.68
ACCAGACGGG	1.04
CACGTTGGGG	1.01
TAGTCCTGTG	0.98
TTAGTTAGCC	1.04

Sequence	switch fluorescence ratio
ACCAACAAAA	1.07
TATTGCAACT	0.999
AATGTTCCTT	1.04
AAGAAAATT	0.977
TAAAGTTGG	0.992
CATGTGTGTT	0.982
ATTCCGGCAC	1.3
AGCCGGGTAC	1.16
TGCATGAGTA	1.01
AACCGTGTAA	1.01
CGTTGTACAT	1.02
AGTCCCAACG	0.983
TATTTGTAAG	0.995
AAAATCCGTA	1.01
GCGTTTTCGC	0.99
AGGGGGCTAC	0.963
GAGGTTTGGA	1.04
GAATCTTGCA	1.03
AGAAGTAGGC	0.928
CTTAAGGCCC	1
CAGGGCAAAG	1.02
CCTTACTCTA	1.69
TAGGACCTGC	0.966

Sequence	switch fluorescence ratio
AAAATGACGG	1.01
TAGTGATAG	1.06
GTAGTCGTGC	0.992
CATCTTGGGA	0.985
GTTCTGTA	1.02
GGGACTTAGT	0.997
ACGGGCGGAA	0.979
AAGTGCAGAC	1.08
GATGCCCCGA	0.986
TTGGGAATG	1
AACTACTCTT	1.03
ACATGTTTAC	0.985
GGAGGCTAGA	1
TTCGGGGTT	1.02
TCGGGTCCTT	1.03
ATATACCAGT	1.08
AAAAGTTAGG	0.967
AATAGCGTCG	1
AAATGTGTTT	1.02
CCAGAAGCGA	3.04
